The source of these data is PMC2246632 (EMBO Reports, 2007).

This series deals with the molecule itself. Kind of series: SEC. A general note: SEC sorts molecules by how far they enter the pores of the column.

B1: Cep3Δ (domain or fragment)
chain: not shown
modifications: selenomethionine-substituted protein (used to solve the crystal structure)
The stoichiometry N is the number of molecules, sites or subunits per partner or assembly. With B1, the “stoichiometry N” value turned out to be 2.
